# Experimental data taken from the supplement of paper PMC5919970.
# Where a name gives a salt, the structure may show the parent alone. Whole data set: some 2,000 compounds, median “fractional viability relative to vehicle” near 0.91, cut for the lowest 2% near 0.045. The list shows a part of the results.
# Test system: TYKNU
# Assay: fractional viability relative to vehicle; TYKNU is a high-grade serous ovarian cancer line; higher = less growth inhibition
# Settings: 72 h
# How it was run: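 TYKNU control cells or lentiCRISPRv2 knockout derivatives were plated at 500 cells per well in duplicate into drug-stamped 384-well plates holding a ~2100-compound library at 2 or 10 μM. Culture was in RPMI 1640 with 10% FBS at 37 °C in 5% CO2, with 72 h of drug treatment. Viability was measured by Cell Titer Glo luminescence, and the averaged duplicate treatment wells were normalised to duplicate control wells at the same plate position.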
# [1] = 2uM, genotype: DNM1L knockout (sgDNM1L #1)
# [2] = 2uM, genotype: sgCTRLA1 (non-targeting control)
# [3] = 10uM, genotype: DNM1L knockout (sgDNM1L #1)
# [4] = 10uM, genotype: sgCTRLA1 (non-targeting control)
Compound,fractional viability [1],fractional viability [2],fractional viability [3],fractional viability [4]
Oc1ccc(/C=C/c2cc(O)cc(O)c2)cc1 [Resveratrol],0.993,1.11,0.918,0.899
Cc1cc(/C=C/C#N)cc(C)c1Nc1ccnc(Nc2ccc(C#N)cc2)n1 [Rilpivirine],0.893,0.973,0.403,0.578
Cc1c(N(C)C)c(=O)n(-c2ccccc2)n1C [Amidopyrine],0.984,1.18,0.904,1.03
CCOc1cc2ncc(C#N)c(Nc3ccc(F)c(Cl)c3)c2cc1NC(=O)/C=C/CN(C)C [Pelitinib (EKB-569)],0.415,0.345,0.0507,0.0481
COc1ccccc1OCC(O)CO (centres undefined) [Guaifenesin],1.01,0.999,0.867,0.99
Nc1nc(CC(=O)Nc2ccc(CCNC[C@H](O)c3ccccc3)cc2)cs1 [Mirabegron],0.921,1.08,0.807,0.998
CC[C@]1(O)C[C@H]2CN(CCc3c([nH]c4ccccc34)[C@@](C(=O)OC)(c3cc4c(cc3OC)N(C=O)[C@H]3[C@@](O)(C(=O)OC)[C@H](OC(C)=O)[C@]5(CC)C=CCN6CC[C@]43[C@@H]65)C2)C1 [Vincristine sulfate],0.17,0.134,0.172,0.13
O=S(=O)(NCCSSCCNS(=O)(=O)c1cc(Cl)ccc1Cl)c1cc(Cl)ccc1Cl,0.891,0.899,0.197,0.43
CC(=O)[C@H]1CC[C@H]2[C@@H]3C=CC4=CC(=O)CC[C@@]4(C)[C@@H]3CC[C@]12C [Dydrogesterone],1.04,1.11,0.874,1.12
Cc1cc(=O)[nH]c(=S)[nH]1 [Methylthiouracil],1.02,1.21,1.04,1.16
CN1[C@@H]2CC[C@H]1C[C@@H](OC(=O)c1c[nH]c3ccccc13)C2 [Tropisetron],0.979,1.12,0.864,1.07
Cc1cccc(C)c1OCC(C)N (centres undefined) [Mexiletine HCl],0.847,1.03,0.772,0.859
CN1CCC[C@@H]1Cc1c[nH]c2ccc(CCS(=O)(=O)c3ccccc3)cc12 [Eletriptan HBr],0.991,1.01,0.788,1.02
COc1ccccc1Oc1c(NS(=O)(=O)c2ccc(C(C)(C)C)cc2)nc(-c2ncccn2)nc1OCCO [Bosentan Hydrate],1.1,1.03,0.984,1.04
COc1ccccc1Oc1c(NS(=O)(=O)c2ccc(C(C)(C)C)cc2)nc(-c2ncccn2)nc1OCCO [Bosentan],0.796,1.23,0.764,0.961
C[S+]([O-])c1ccc(-c2nc(-c3ccc(F)cc3)c(-c3ccncc3)[nH]2)cc1 (centres undefined),1.03,1,1.03,0.943
COc1cc2c(Oc3ccc(NC(=O)C4(C(=O)Nc5ccc(F)cc5)CC4)cc3F)ccnc2cc1OCCCN1CCOCC1,0.628,0.631,0.0524,0.0418
CCOc1ccc2ccccc2c1C(=O)N[C@@H]1C(=O)N2[C@@H]1SC(C)(C)[C@@H]2C(=O)O [Nafcillin Sodium],1.07,1.07,0.876,1.01
CCN(CC)CCNC(=O)c1cc(Cl)c(N)cc1OC [MetoclopraMide HCl],0.753,1.2,0.749,1.16

Compound,fractional viability [1],fractional viability [2],fractional viability [3],fractional viability [4]
CC1=NN(c2ccccc2)C(=O)C1 [Edaravone],1.14,1.02,1.15,0.897
O=C(N[C@H](CO)[C@H](O)c1ccc([N+](=O)[O-])cc1)C(Cl)Cl [Chloramphenicol],0.951,0.965,0.877,0.875
O=C(O)CCNC(=O)c1ccccc1 [Betamipron],0.922,1.11,0.923,0.986
CCC[C@@H]1C[C@@H](C(=O)N[C@@H]([C@H]2O[C@H](SC)[C@H](O)[C@@H](O)[C@H]2O)[C@H](C)Cl)N(C)C1 [Clindamycin],1.03,1.13,1.01,1.06
CCC[C@@H]1C[C@@H](C(=O)N[C@@H]([C@H]2O[C@H](SC)[C@H](O)[C@@H](O)[C@H]2O)[C@H](C)Cl)N(C)C1 [Clindamycin HCl],0.974,1.06,1.04,1.16
CO[C@H]1/C=C\C=C(/C)C(=O)NC2=CC(=O)C(NCCN(C)C)=C(C[C@@H](C)C[C@H](OC)[C@H](O)[C@@H](C)/C=C(\C)[C@@H]1OC(N)=O)C2=O [17-DMAG (Alvespimycin) HCl],0.435,0.239,0.307,0.173
C=C1/C(=C\C=C2/CCC[C@]3(C)[C@@H]([C@H](C)CCCC(C)C)CC[C@@H]23)C[C@@H](O)C[C@@H]1O [Alfacalcidol],0.929,0.97,0.539,0.844
CCN(CC)CCOC(=O)c1ccc(N)cc1Cl [Chloroprocaine HCl],0.794,1.15,0.728,1.05
Cc1c(-c2ccccc2)oc2c(C(=O)OCCN3CCCCC3)cccc2c1=O [Flavoxate HCl],1.01,1.21,0.835,1.03
COc1ccc(O)cc1 [Mequinol],1.03,1.19,1.07,1.09
CCCCCCOC(=O)NC(=N)c1ccc(NCc2nc3cc(C(=O)N(CCC(=O)OCC)c4ccccn4)ccc3n2C)cc1 [Dabigatran Etexilate],0.894,0.873,0.474,0.585
CN[C@@H]1[C@H](O)[C@H](NC)[C@H]2O[C@@]3(O)C(=O)C[C@@H](C)O[C@H]3O[C@@H]2[C@H]1O [Spectinomycin HCl],1.11,1.03,1.25,1.12
NS(=O)(=O)c1cc2c(cc1Cl)NC(C(Cl)Cl)NS2(=O)=O (centres undefined) [Trichlormethiazide],0.959,0.967,0.866,0.974
NC(=O)c1cnc(N[C@@H]2CCCC[C@@H]2N)nc1Nc1cccc(-n2nccn2)c1,0.751,0.853,0.185,0.142
C#Cc1cccc(Nc2ncnc3cc(OCCOC)c(OCCOC)cc23)c1 [Erlotinib],0.806,1.05,0.573,0.399
C#Cc1cccc(Nc2ncnc3cc(OCCOC)c(OCCOC)cc23)c1 [Erlotinib HCl (OSI-744)],1.08,0.997,0.619,0.575
COc1ccc(Cn2ccc3ccc(C(=O)NO)cc32)cc1,0.986,1.08,0.723,0.855
CC#CC(=O)N1CC[C@@H](n2c(=O)n(-c3ccc(Oc4ccccc4)cc3)c3c(N)ncnc32)C1,0.731,0.919,0.869,0.819
Cc1onc(-c2ccccc2Cl)c1C(=O)N[C@@H]1C(=O)N2[C@@H]1SC(C)(C)[C@@H]2C(=O)O [Cloxacillin Sodium],0.971,1.14,0.854,1.09

Compound,fractional viability [1],fractional viability [2],fractional viability [3],fractional viability [4]
CCc1c2c(nc3ccc(O)cc13)-c1cc3c(c(=O)n1C2)COC(=O)[C@]3(O)CC,0.106,0.11,0.057,0.0603
Cc1ccc(NC(=O)c2ccc(CN3CCN(C)CC3)cc2)cc1Nc1nccc(-c2cccnc2)n1 [Imatinib (STI571)],1.18,1.1,0.839,0.867
Cc1ccc(NC(=O)c2ccc(CN3CCN(C)CC3)cc2)cc1Nc1nccc(-c2cccnc2)n1 [Imatinib Mesylate (STI571)],1.08,1.12,0.599,0.612
CC(C)C(=O)Oc1ccc(CO)cc1[C@H](CCN(C(C)C)C(C)C)c1ccccc1 [Fesoterodine Fumarate],0.903,1.15,0.805,0.995
Cc1nn(-c2ccccc2)c(C)c1C=NN1CCN(Cc2ccccc2)CC1,0.866,1.15,0.746,1.24
O=C(O)C(=O)O.[NH-][C@@H]1CCCC[C@H]1[NH-].[Pt+2] [Oxaliplatin],0.737,0.829,0.451,0.487
O=C(NCC1(c2nc(-c3ccccc3)cs2)CCOCC1)c1cccc(-c2noc(C(F)(F)F)n2)c1,0.764,1.05,0.562,0.909
Cc1c(C(=O)NN2CCCCC2)nn(-c2ccc(Cl)cc2Cl)c1-c1ccc(Cl)cc1 [Rimonabant],1.11,1.01,0.575,0.753
C[C@H]1c2cccc(O)c2C(=O)C2=C(O)[C@]3(O)C(=O)C(C(N)=O)=C(O)[C@@H](N(C)C)[C@@H]3[C@@H](O)[C@@H]21 [Doxycycline Hyclate],1.12,1.2,0.54,0.41
COc1cc2c(cc1OC)CC(=O)N(CCCN(C)C[C@H]1Cc3cc(OC)c(OC)cc31)CC2 [Ivabradine HCl],1.08,1.14,0.804,1.02
Clc1ccc(C(Cn2ccnc2)OCc2ccsc2Cl)c(Cl)c1 (centres undefined) [Tioconazole],1,1.06,0.761,0.955
COc1cc(C(=O)N2CCC(N3CCN(C)CC3)CC2)ccc1Nc1ncc2c(n1)N(C)c1ccccc1C(=O)N2C,0.584,0.826,0.45,0.389
CCOC(=O)c1cnc2ccc(-c3cncc(NS(=O)(=O)c4ccccc4)c3)cn12,0.176,0.171,0.183,0.108
C[C@@H](Nc1cc(F)cc(F)c1)c1cc(C(=O)N(C)C)cc2c(=O)cc(N3CCOCC3)oc12,0.647,0.847,0.701,0.566
CCCN1CCCC[C@H]1C(=O)Nc1c(C)cccc1C [Ropivacaine HCl],0.944,1.13,0.926,1.13
CC(C)(OCc1nn(Cc2ccccc2)c2ccccc12)C(=O)O [Bindarit],1.13,1.03,0.806,1.01
Cc1cccc(-c2[nH]c(C(C)(C)C)nc2-c2ccc3c(c2)OCO3)n1,0.987,0.98,0.471,0.423
CC(NC(=O)c1ccccc1/N=C/c1c(O)ccc2ccccc12)c1ccccc1 (centres undefined) [Sirtinol],1.02,1.16,0.934,1.08
